# Source: publication PMC12136788
# Some of the results follow.
# B1: chr7:149068622:149068623:-_ENSMUSG00000025139_ENSMUST00000001950|mus_hu|mus_mus_mus_hu_False|88_108 (ssRNA)
# RNA: GGGAGUUCUACAGUCCGACGAUCGUGCAGGUACUGAGUGUGGCUUGUGCUCUGCAGUGGGUUAGAGUUGUUAAUAUCACGGAACAUACCAUCUAGAACGUUCCAGUCCCGCCUGACACCUUCAUUCCCAAUGGAGAAGAAAUCCAACAGAGGAUUGAGCAUCA
# B2: 24593305_24594397_368_CDS_ENSMUSG00000019984_ENSMUST00000092646|mouse|control|control (ssRNA)
# RNA: GGGAGUUCUACAGUCCGACGAUCUAUCAAAGAUUCACAAACCAUCCUGGGUGGAAGGAGACCAGUCUCAACUGCCAUUGCUAAGCAGUCAUAGAGGAAAGAAAUUCUUUUGGGGCUGUGUUGGCCAUGAAUAAAUUUAACAAUCAACAGAGGAUUGAGCAUCA
# B3: chr14:76904568:76904569:+_ENSMUSG00000022010_ENSMUST00000022587|mus_mus|motif|central (ssRNA)
# RNA: GGGAGUUCUACAGUCCGACGAUCGUUUUCGGUUCCCAGCAAAGACGACAAGAAAGAAAUGGAAAAAUGUCUCAGUUGGUAAACUCCGGGAUCCAUCGCCACUGGUCUACACCAUUGGGAUUUCAUGCAAUUGCAGCCAAAUUACAACAGAGGAUUGAGCAUCA
# B4: chr1:225611761:225611762:-_ENSG00000143815_ENST00000272163|hu_mus|hu_hu_hu_mus_True|98_98 (ssRNA)
# RNA: GGGAGUUCUACAGUCCGACGAUCCCAGGCCAUCGGCCUCUUACCACUUCACCCUCAACAAACUUCCUACUUGGCAUUUUCUAAAAUUAGUCUGGCCGCGCUCCGGCGGGAACUCCAGCCACUCCAGGACAGUCACCAGCAGCCCAACAGAGGAUUGAGCAUCA
# B5: chr7:54825262:54825263:-_ENSG00000132432_ENST00000352861|hu_hu|hu_hu_hu_mus_False|28_88 (ssRNA)
# RNA: GGGAGUUCUACAGUCCGACGAUCCUGCCGGCUGGGCUCCACAAACUUUACCUGAUCAUCCAUGUUUGUUGGAUGGCGGAUUGAGAGCGUAGAGACACGUAGCUCAGGGAGCUUGCUAGCCCAACGGAACCGGAAGCUGGCAACCAACAGAGGAUUGAGCAUCA
# B6: chr11:87793471:87793472:-_ENSMUSG00000020483_ENSMUST00000020775|mus_mus|motif|central (ssRNA)
# RNA: GGGAGUUCUACAGUCCGACGAUCAAUGGGCUGGGGAAAAAAAAAUAGCUAGAUUUCCCCACCCCUUACAGUGUCAACCCGGUGCGAGUUCUGAAUGUGAUUCAUAAGAAUCAGCAGCUCAAUUGGCAAUGACAACCCCCACCCCAACAGAGGAUUGAGCAUCA
# B7: 59068870_59068990_946_CDS_ENSMUSG00000038206_ENSMUST00000040218|mouse|control|control (ssRNA)
# RNA: GGGAGUUCUACAGUCCGACGAUCCUUGGUUAUAAGAGUUUCAAGGUACUCCCCACGCUCUUCAGGGGCAUGAAUAUGACGAAAAAAUUCUCUCAGUGCAUUCGGCAAGAACUGAUUUCUAAAAUUAUGCAAGGUUACAAGGUCCAACAGAGGAUUGAGCAUCA
# B8: 31426640_31426760_2545_CDS_ENSG00000134644_ENST00000257075|human|control|control (ssRNA)
# RNA: GGGAGUUCUACAGUCCGACGAUCUCGAAAAUCUUCCAAAAGCCUGCUCCUGCCAGAAGGCAUGACAUCAGACAUUCCAUAUCGCAAACGAGAGGAAGAGAAAAGAGUGCUGCUCGGGCUGAAGAGGCUGGAGGCGCUGCUUGCCAACAGAGGAUUGAGCAUCA
# B9: chr9:95013113:95013114:-_ENSG00000196305_ENST00000443024|hu_hu|hu_hu_hu_mus_False|1_48 (ssRNA)
# RNA: GGGAGUUCUACAGUCCGACGAUCCUCAGUCAGAAAGGGCGUGUAAGGGGCCAUCAGUCUGCACAGAGAAAGCAGGACACUGAACAGGGUUUCUAGGGCCAUGACACAGUCUUCCACCCCACUCUCACCCUUUAACCUUCUGCGCAACAGAGGAUUGAGCAUCA
# B10: chr16:94664741:94664742:+_ENSMUSG00000040785_ENSMUST00000117648|mus_hu|mus_mus_mus_hu_False|28_108 (ssRNA)
# RNA: GGGAGUUCUACAGUCCGACGAUCUGGCAUGGAUCUUGGUAGCUGAUAUUCAGGAGAAAGGCUGGCCAAGGGUGUAUAUAUGCUGGUGUACUGGGGCAAACCUGGUACCAUGUUAAUGUAUGCUGGCGGUGUCUGGGUGAUAUCCAACAGAGGAUUGAGCAUCA
# B11: chr11:46405157:46405158:+_ENSG00000110492_ENST00000395566|hu_hu|hu_hu_hu_mus_False|68_108 (ssRNA)
# RNA: GGGAGUUCUACAGUCCGACGAUCCCCUUAGGGGUGGGGGCACUUGGUGUGGGCGUGAGAGGACAGGAUGAUUGAUUAGAGCUGACAGGAAGACAAAAGGCACUGGUGGGUUAUAUCUUGGGCCUGUGGGAGAGGAGGGCUCCGCAACAGAGGAUUGAGCAUCA
# B12: chr17:66251843:66251844:+_ENSG00000196704_ENST00000359783|hu_hu|motif|central (ssRNA)
# RNA: GGGAGUUCUACAGUCCGACGAUCAAAUAUGUGUCCGAUCUCAUGGGUUAAAGUCUUACAGGAUCGAAGUAGUAAAACACGGGUUAUUUCUGGAAUAUAAUAGUUGUCGAAAAUUGAAUAGUCACUUGAAGAUGUUUUCUUGAGCAACAGAGGAUUGAGCAUCA
# B13: chr11:20128097:20128098:-_ENSMUSG00000044066_ENSMUST00000050611|mus_hu|FALSE|FALSE (ssRNA)
# RNA: GGGAGUUCUACAGUCCGACGAUCCCAACUCUAGGUUUUCAAGAAUGUUUUACAUACAGGUUUAUAAUUGACAAUUAUUUGCUAGAGUGGUUUUUCCCUUUUAAAGUCUCAGUGUGUAUGGAACUAAGAUGAUUAAUAUGGCAACAACAGAGGAUUGAGCAUCA
# B14: 93515602_93521466_3588_CDS_ENSG00000173575_ENST00000394196|human|control|control (ssRNA)
# RNA: GGGAGUUCUACAGUCCGACGAUCGUCCUCAGACCCAUCUGCAUUGAAGUGGUCCAGUGCCUGUUUUCGGAUUUCUCCCUUGAUGGAACCAUCCAGACGCUGGAAAGGAUAGUGUUUAAUAGUUAGGUAUUCAGCCAGGAUAUCCAACAGAGGAUUGAGCAUCA
# B15: chr4:108167797:108167798:+_ENSMUSG00000034610_ENSMUST00000043368|mus_mus|FALSE|FALSE (ssRNA)
# RNA: GGGAGUUCUACAGUCCGACGAUCCUCCACAAUGUCCUGGCGGAUUCUGAGGUCAUCAUCUGUUAUUCCUUGUUCUUUUGCUAACUCAACAACUGCAACACUUAAAGCAGCCAAGUGAGCAGAGGAAGGAGAUGGAAGAGACCGCAACAGAGGAUUGAGCAUCA
# B16: 76620712_76620832_132_CDS_ENSG00000089916_ENST00000261530|human|control|control (ssRNA)
# RNA: GGGAGUUCUACAGUCCGACGAUCGCGUUUCCGAAGCUGCCGCCUCUGCUGUCGGGGGCUCAGCGCCAUCUCCUCCCACAGUUCACCAAGCUUAUUCUGCUCAGAUGUCUGCUCCAAGGCUGAGGCUAAGUCGUGUACCAGCUCCAACAGAGGAUUGAGCAUCA
# B17: chr10:34671499:34671500:-_ENSG00000148498_ENST00000340077|hu_mus|motif|central (ssRNA)
# RNA: GGGAGUUCUACAGUCCGACGAUCGAUGCUGAAUCCCAGUCCUUCUGUACCUUUCUUAAGCUGGAUGUUGAGCCUCUUGCCGGCUUUCUUCGUGUUGUACACACUGCCUACGUUGGUACUAAGCACACUGGGUGGAGCCAAGGCCAACAGAGGAUUGAGCAUCA
# B18: chr9:136895555:136895556:-_ENSG00000169925_ENST00000303407|hu_mus|motif|central (ssRNA)
# RNA: GGGAGUUCUACAGUCCGACGAUCACCGUUUUUUUUUUUUUUUUACUCUGUGGUGUUGAGGCCGGCAUUGCAAAAAACAAGCGGAACGGCUUACAAUGGACUCAUUUUCAGUAACUGACAUUUACAGGAAUAUACUAGAAACGGCAACAGAGGAUUGAGCAUCA
# B19: chr14:66974463:66974464:+_ENSMUSG00000022044_ENSMUST00000074523|mus_hu|mus_mus_mus_hu_False|58_108 (ssRNA)
# RNA: GGGAGUUCUACAGUCCGACGAUCUUGUAGGAUGAUUUAUUCAGGGGAUCGGCCAGGAAGCAGGAGCAGAACAAGGACACUAGUGGGAGCUCCUUCAUCUUCUCUUUGUAGGCAGCAAGGGUCAUGUUUCUGGGAUCUGGUGGCCAACAGAGGAUUGAGCAUCA
# B20: chr10:8116392:8116393:+_ENSG00000107485_ENST00000346208|hu_hu|FALSE|FALSE (ssRNA)
# RNA: GGGAGUUCUACAGUCCGACGAUCACUGUGGCCAGUGAAAGGAAACAAAACUGGCAGUUUGUCCAUUUGAAUAUCAGACCUAGUUUCUUCUUAAUUUCCACACUAUUUCUCCCAUAUUCCUUAAACUUCUUGGCAUCCUUCAUGCAACAGAGGAUUGAGCAUCA
# B21: chr6:31458560:31458561:+_ENSMUSG00000025609_ENSMUST00000026699|mus_hu|FALSE|FALSE (ssRNA)
# RNA: GGGAGUUCUACAGUCCGACGAUCUAAACGGGAGCCCUGGUUCUGCAGAGCUCUUCUGGACGAAAGAGUCAUUUUCUCCUAAAAUUGCUAUUAAGAUAUUAUUCACUACUAGAUCCCUCCUGCUGGUCACUUUUAGAAUGGCUCCAACAGAGGAUUGAGCAUCA
# B22: chr5:4754414:4754415:-_ENSMUSG00000044674_ENSMUST00000054294|mus_hu|motif|central (ssRNA)
# RNA: GGGAGUUCUACAGUCCGACGAUCGUAAUAAAAUGUUGAAAGUGUACAACUUUUACAUUUUAAAGUUUCUGAUAUAUGUCGGGUUAUUUGAUUAAAAAUAAGAAAAUAGCACUUCAUUUUGAGGAAGUCCAUGACACUGAAAUACAACAGAGGAUUGAGCAUCA
# Target: T1, UNK ZnF1-3 (human, UniProt Q9C0B0 31-174)
# T1 sequence: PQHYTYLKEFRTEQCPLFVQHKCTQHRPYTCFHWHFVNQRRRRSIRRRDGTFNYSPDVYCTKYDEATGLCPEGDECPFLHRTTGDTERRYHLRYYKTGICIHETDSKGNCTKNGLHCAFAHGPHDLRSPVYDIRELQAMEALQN
# Test: nsRBNS (natural sequence RNA bind-n-seq); RBNS binding buffer (assumed for nsRBNS): 25 mM Tris pH 7.5, 150 mM KCl, 3 mM MgCl2, 0.01% Triton X-100, 500 ug/ml BSA, 20 U/ml SUPERase-In, 4 C; UNK is unkempt and MSI1 is Musashi-1; names of the RNAs are library labels; protein concentration not given here; high values mean tight binding
row,Binder,binding signal [enrichment R]
1,B1,0.813
2,B2,1.59
3,B3,1.36
4,B4,1.33
5,B5,0.992
6,B6,0.747
7,B7,1.12
8,B8,1.66
9,B9,0.937
10,B10,1.02
11,B11,2.51
12,B12,1.55
13,B13,0.811
14,B14,0.586
15,B15,1.05
16,B16,0.847
17,B17,0.701
18,B18,0.88
19,B19,2.66
20,B20,0.908
21,B21,0.654
22,B22,0.438
